# Reference: ChEMBL document CHEMBL4888484, “Replenishing the malaria drug discovery pipeline: Screening and hit evaluation of the MMV Hit Generation Library 1 (HGL1) against asexual blood stage Plasmodium falciparum ,using a nano luciferase reporter read-out” (2022)
# The whole screen tested about 150,000 compounds, of which about 540 (0.36%) showed an effect of 50% or more. The list shows a part of the results.
# Test system: Plasmodium falciparum
# Assay: Primary screen in NF54 nanoGlo assay, in single point, at 2uM, 72h; a lower Z score goes with more inhibition
# Format: functional, Erythrocyte
# Conditions: timepoint 72 hour
Compound,% Inhibition [%],Z score
CN(C(=O)Cn1nnc2ccccc2c1=O)C1CCCCCCC1,-3,0.26
Cc1nc(C(=O)Nc2ccccc2Oc2ccccc2)co1,1,-0.17
Cc1nc(CN(C(=O)[C@H](C)n2cncn2)c2ccc(F)cc2)cs1,-4,0.34
Cc1c(Cl)cccc1NS(=O)(=O)c1cc(-c2nc(C(C)C)cs2)cs1,-16,2.32
Cc1oc(-n2c(C)ccc2C)c(C#N)c1C,-5,0.73
COc1ccc(CC(=O)N2CCc3nc(N4CCN(C)CC4)nc(Oc4ccc(F)cc4F)c3C2)cc1,-15,2.48
Cc1cc(CN2CC[C@H](NC(=O)c3ccncc3)[C@@H](O)C2)ccc1F,-7,0.95
CCOc1ccccc1CCNC(=O)c1cn2c(n1)CNCC2,-18,2.28
COc1cccc(C2C(C(=O)NC3CC4CCC3C4)c3ccccc3C(=O)N2C2CC2)c1 (stereo not given),-4,0.53
Cc1cc(C(=O)CN2C(=O)NC3(CCCCCCC3)C2=O)c(C)n1-c1ccon1,-2,0.31
Cc1cnccc1CN(C)Cc1noc(C2CCCC2)n1,-1,0.14
O=c1cc2c(n[nH]1)-c1ccccc1OC2,-5,0.71
COc1ccc(CN(C)Cc2c(C)noc2C)c(OC[C@@H](O)CN2CCCC2)c1,7,-1.18
CC(=O)Nc1nc(CN2CCc3c(ncn3C)C2)cs1,12,-1.71
CCOC(=O)[C@H]1CCCN(C(=O)c2nn(-c3ccccc3F)c(=O)n(CC)c2=O)C1,-11,1.52
Cc1ccc(NC(=O)[C@H]2CCCN(S(=O)(=O)c3ccc4c(c3)NC(=O)CO4)C2)c(Cl)c1,-2,0.38
CC(C)CC(=O)Nc1ccc(-n2nc(OCc3ccc(F)cc3)nc2-c2cccc(F)c2)cc1,-4,0.67
O=C(c1cnc2ccc(F)cc2c1N1CCC(Cc2ccccc2)CC1)N1CCCC1,32,-4.13
Cc1cc(CNc2ccc(Br)cc2CO)on1,-3,0.52
CC(C)(C)n1ncn(CC(=O)N2CCc3ccccc3C2)c1=O,-19,1.59
COc1cc2ccc3c(CCN(C)C(C)=O)cc(OC)c(OC)c3c2cc1OC,5,-0.6
C1CCN(Cc2n[nH]c3c2COCC3)C1,-5,0.51

Compound,% Inhibition [%],Z score
COC1CCCC1C1COCCN1Cc1cc(C(=O)O)sc1C (stereo not given),-4,0.4
COC(=O)[C@@H]1C[C@H](O)CCN1S(=O)(=O)c1cccc(OC)c1,-5,0.91
Cc1cc(C(=O)NCC2(c3ccccc3Cl)CC2)nc2nc(O)[nH]c(=O)c12,-5,0.61
CC1=C(C)CN(S(=O)(=O)c2c[nH]c3ncncc23)CC1,-9,1.27
O=C(Nc1ccccc1)c1cccnc1NCc1ccccc1,-1,0.2
COc1cccc(C2=NN(C(=O)CN(CCN3CCOCC3)C(=O)CC(C)(C)C)[C@H](c3ccc4c(c3)OCO4)C2)c1,-26,2.31
CCCN1C(=O)COc2ccc(-c3noc(-c4cc(OC)c(OC)c(OC)c4)n3)cc21,4,-0.48
O=C(NCCN1CCOCC1)c1nc(Cc2ccccc2)n(-c2ccccc2)n1,-11,1.47
COC(C(=O)Nc1ncc(C(F)(F)F)cc1Br)C1CCOC1 (stereo not given),-16,2.63
Cc1ccc(-c2ccc(CCC(=O)NCCc3ccccc3)o2)cc1C,-4,0.52
Cc1noc(C)c1CNc1cncc(OCC(C)C)n1,-6,0.52
CCOc1ncccc1CN[C@@H](C)c1ccc(C)s1,-6,0.64
CCc1ccc(CN[C@@H](C)CCc2ccco2)cc1,-2,0.27
CCCCN(CCCC)S(=O)(=O)c1c(C)nc(O)nc1O,-16,2.04
C[C@@H](CC(F)(F)F)Nc1cnn(C)c1,1,-0.08
O=C1C[C@H](c2nc(-c3cccs3)no2)CN1c1cn[nH]c1,-16,2.17
O=C(CCN1CCOC1=O)Nc1cc(Cl)c(Cl)cc1Cl,-31,3.58
Cn1ncc2c1CC(C(=O)NC1CCOC(C3CC3)C1)CC2 (stereo not given),10,-1.12
Cn1c(CCc2ccccc2NC(=O)CC2CCCCC2)nc2ccccc21,-11,1.29
O=S(=O)(CCOCC1CC1)N1CCS(=O)(=O)C2(CCCCC2)C1,-5,0.55
O=C(Nc1ccccc1)N1CCO[C@@H](CN2CCN(c3ccccc3F)CC2)C1,-10,1
CN(C(=O)CC1(C(=O)O)CCC1)[C@H]1CCOc2ccc(Br)cc21,1,-0.26

Compound,% Inhibition [%],Z score
N#Cc1cccc(C(=O)N2CCN(C[C@H](O)C3CC3)CC2)c1,-11,1.67
COc1cc(F)ccc1-c1nc(N)nc(Nc2ccc(C)cc2)n1,1,-0.19
COc1ccc(NC(=O)Cn2cc(NC(=O)OC(C)(C)C)nn2)cc1,-6,0.86
Cc1cnn(C[C@H](C)NCc2cn3ccccc3c2C#N)c1,-17,2.28
CCN1CCN(c2c(CN(CCOC)C(=O)CCC3CCCC3)c(C)nn2-c2cccc(F)c2)CC1,-8,1.13
CC(=O)c1ccc(F)c(-c2cc(C)cc3c2O[C@@H](CNC(=O)c2ccco2)C3)c1,0,-0.08
Cc1csc([C@H](C)N(C)C(=O)c2ccc(-n3cnnc3)nc2)n1,-12,1.57
COc1cc(C[C@@]2(CCC(=O)N3CCCC3)CCC(=O)N2)ccc1F,14,-1.72
Cc1cc2c(cc1C)[C@@H](N(C(=O)CCOC(C)C)C1CC1)CCCO2,-4,0.71
CCC(CO)NC(=O)Cc1ccc(NC2CCCC(C#N)C2)cc1 (stereo not given),-4,0.6
O=C(NCC1CCOCC1)c1ccc(-c2ccc(C(F)(F)F)cn2)cc1,1,-0.21
COc1cccc([C@@H](CNC(=O)c2cc(C3CC3)nc3onc(C)c23)c2c[nH]c3ccccc23)c1OC,-12,2.27
Cc1cccc(C)c1OCc1cc(C(=O)NC2CCC2)no1,-13,1.49
COc1ccc(C(=O)N2C[C@@H](COc3ccccc3)[C@H](C(N)=O)C2)cn1,-8,1.14
CC(C)C[C@H](C)NC(=O)CNc1ccc(S(N)(=O)=O)cc1F,-16,1.75
Cc1ccc([C@H]2CN(C(=O)c3scc4c3OCCO4)C[C@@H]2N(C)C)cc1,-13,1.57
O=C(Cn1cnc2ccccc2c1=O)Nc1ccc2c(c1)CCC2,-12,1.88
CC(C)(O)Cn1ncnc1CCCCc1ccccc1,-13,1.78
Cc1cnn(Cc2nc(-c3ccccc3Cl)oc2C)c1,-7,1.01
Cc1nnc2c(NC(=O)C3CCCC3)cccn12,-3,0.53
CCCc1ncncc1C(=O)N[C@@H]1COCC[C@@H]1Oc1cccc(F)c1,-4,0.68
Cc1ccccc1N1CCN(C(=O)c2cn3c(n2)CCCC3)CC1,-6,0.91

Compound,% Inhibition [%],Z score
Cc1csc(C2(NCc3ccc(C)c(Cl)c3)CCOCC2)n1,5,-0.72
N[C@H]1CCC[C@@H](c2ncnn2Cc2ccc(F)cc2)C1,0,-0.06
C#CCN(Cc1csc(CCC)n1)Cc1ccco1,-7,0.83
O=C(CC[C@@H]1N=C(O)N(Cc2ccco2)C1=O)NCCc1ccc(Cl)cc1,16,-2.05
CC(C)OCCC(=O)N[C@H](C#N)c1ccccc1F,-8,1.07
Cc1cnc(CCNC(=O)c2ccnn2C)n1C1CCCC1,-7,1.03
COc1cc(CNCCN2CCOCC2)ccc1OCc1cccc(C)c1,42,-5.6
CCc1nn(-c2ccccc2)c(Oc2ccc(C)cc2)c1CN(CC1CC1)C[C@H](O)COC(C)C,9,-1.34
COc1ccc2c(c1)[C@H](C(=O)Nc1nc(C)nn1C)CC2,-4,0.48
Cc1cc(=O)cc(C(=O)N2CCC[C@H](C(C)(C)C)CC2)[nH]1,-24,2.58
CC(C)c1noc(OCC(=O)Nc2ccccc2)n1,-7,1.05
COc1ccc(-c2cc(N3CCC[C@H](NC(=O)C4CCN(C(C)=O)CC4)C3)[nH]n2)cc1,-13,1.33
Nc1c(-c2ccccc2F)ncnc1N1CCCCC1,4,-0.5
COCCn1cc(S(=O)(=O)N2CCC[C@H]3CCCC[C@H]32)cn1,-10,1.15
Cc1ccc2c(c1)[nH]c(=O)c1c(C(=O)NCc3ccccn3)nnn12,-1,0.11
FC(F)Cn1nccc1-c1nc(C2(c3ccncc3)CCC2)no1,-10,1.71
CCOc1ncccc1CN[C@@H](C)C(=O)NC1CCCC1,-7,1.16
O=C(NCc1ccncc1)c1cn(C2CN(C(=O)C3CCCCC3)C2)nn1,-7,1.4
NC(=NCc1ccc(O)c(F)c1)N1CCN(c2ccccn2)CC1,5,-0.66
